Source: PubChem BioAssay AID720709 (National Center for Advancing Translational Sciences (NCATS), 2013)
The whole screen tested about 360,000 compounds, of which about 520 (0.14%) were called active. This list was built around the results that the source calls inconclusive (neither active nor inactive); the mix of calls is not that of the screen. The call rests on the fitted dose curve; in most records, active means well fitted inhibition curve with a large enough effect; inconclusive means small, poorly fitted or top-dose-only effect; inactive means no such curve, though single readings can be large or run the other way. Potencies of inconclusive entries are left out as doubtful fits.

Each compound was assayed against Rap guanine nucleotide exchange factor 3 (Homo sapiens) (UniProt O95398) (assay: qHTS for Antagonist of cAMP-regulated guanine nucleotide exchange factor 3 (EPAC1): primary screen). Details: EPAC1 GEF assay, Rap1b-BODIPY-GDP exchange fluorescence; activity change, negative = inhibition: at 115 µM (top of the series).
UniProt O95398, sequence (O95398 whole entry, looked up): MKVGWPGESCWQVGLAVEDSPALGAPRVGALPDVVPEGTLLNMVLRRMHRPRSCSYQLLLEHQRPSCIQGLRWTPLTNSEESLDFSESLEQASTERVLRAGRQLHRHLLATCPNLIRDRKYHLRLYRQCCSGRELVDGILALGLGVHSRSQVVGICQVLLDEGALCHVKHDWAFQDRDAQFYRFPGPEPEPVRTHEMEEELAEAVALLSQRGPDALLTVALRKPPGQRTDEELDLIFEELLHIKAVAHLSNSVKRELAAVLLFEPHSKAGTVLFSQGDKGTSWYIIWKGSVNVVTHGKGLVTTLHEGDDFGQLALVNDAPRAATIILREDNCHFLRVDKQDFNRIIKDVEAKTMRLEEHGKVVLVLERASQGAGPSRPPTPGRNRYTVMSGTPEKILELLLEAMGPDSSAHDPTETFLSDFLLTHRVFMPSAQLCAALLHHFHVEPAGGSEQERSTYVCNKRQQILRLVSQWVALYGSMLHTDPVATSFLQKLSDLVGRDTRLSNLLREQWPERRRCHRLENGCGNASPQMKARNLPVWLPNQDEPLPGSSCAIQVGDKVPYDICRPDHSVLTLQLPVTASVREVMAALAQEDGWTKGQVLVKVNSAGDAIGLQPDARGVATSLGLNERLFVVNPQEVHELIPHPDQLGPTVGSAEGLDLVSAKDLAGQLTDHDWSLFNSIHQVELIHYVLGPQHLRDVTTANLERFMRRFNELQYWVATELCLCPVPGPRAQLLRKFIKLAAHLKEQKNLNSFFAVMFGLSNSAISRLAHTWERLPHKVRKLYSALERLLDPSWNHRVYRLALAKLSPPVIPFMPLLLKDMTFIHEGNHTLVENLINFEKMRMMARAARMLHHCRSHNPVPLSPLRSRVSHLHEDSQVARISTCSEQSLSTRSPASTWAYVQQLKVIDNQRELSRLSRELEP
Further: nearly all actives have a fitted effect of over 50% in size.
Potency means the concentration at half of the fitted maximal effect; tags describe the fitted curve by direction and shape.
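Wherever activity change, negative = inhibition is given: plate controls were vehicle for no effect and positive control for full effect.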

Row | Structure (SMILES) | Potency | activity change, negative = inhibition
1 | CC(C)C[C@@H](CN1CCC[C@H]1CN1C(=O)C(=O)NC[C@@H]1Cc1ccc(O)cc1)N1C[C@H](Cc2ccc(O)cc2)N(CC2CCCCCC2)C(=O)C1=O | inconclusive [inhibitor, single point] | 
2 | CCN1CCN(c2nc(Nc3cccc(F)c3)nc(N)c2[N+](=O)[O-])CC1 | inconclusive [inhibitor, partial curve] | 
3 | CCOC(=O)c1ccc(CC(=O)c2ccc(O)c(O)c2O)o1 | inconclusive [inhibitor, full curve] | 
4 | COc1ccccc1C(=O)OCC(=O)c1ccc(CNC(C)=O)s1 | inconclusive [inhibitor, full curve, poor fit] | 
5 | C/C(=N\NC(=O)C1(C)CC1(Br)Br)c1ccc([N+](=O)[O-])cc1 (configuration not stated) | inconclusive [inhibitor, partial curve] | 
6 | Cc1ccc2nc(NC(=S)NC(=O)c3ccco3)sc2c1 | inactive | 
7 | O=C(COC(=O)c1ccc2ccccc2c1O)Nc1ccccc1 | inconclusive [inhibitor, partial curve, poor fit] | 
8 | CCCN1CCN(C(=O)Cn2nc(CC)n3c(cc4sccc43)c2=O)CC1 | inconclusive [inhibitor, single point] | 
9 | Cc1nnc(-c2cccc(Br)c2)c2cn(-c3cccc(Br)c3)nc12 | inconclusive [inhibitor, partial curve] | 
10 | O=C1/C(=C/c2cccs2)COc2ccccc21 | inconclusive [inhibitor, partial curve] | 
11 | Cc1nc2c3ccccc3n(Cc3ccccc3F)c2s1 | inactive | 
12 | CC1(C)CC(c2nc(-c3ccccc3)cs2)CCS1 (configuration not stated) | inconclusive [inhibitor, partial curve, poor fit] | 
13 | CC1CCCN(C(=O)CCS(=O)(=O)c2cc3c(cc2Cl)NC(=O)CO3)C1 (configuration not stated) | inconclusive [inhibitor, single point] | 
14 | COc1cccc(NC(=O)Nc2nc(-c3ccc(OC)c(OC)c3)cs2)c1 | inconclusive [inhibitor, partial curve] | 
15 | COc1ccc(CN2CCN(C(=O)c3ccc(S(=O)(=O)N4CCCCCC4)cc3)CC2)cc1 | inconclusive [inhibitor, single point] | 
16 | CN(CCC#N)C(=O)COC(=O)c1c2c(nc3ccccc13)/C(=C/c1ccco1)CC2 | inconclusive [inhibitor, partial curve] | 
17 | CCCNC(=O)C[C@@H]1CC[C@@H]2[C@H](COC[C@H](O)CN2C(=O)c2cc(Cl)cc(Cl)c2)O1 | inactive | 
18 | C[C@](N)(Cc1ccc(O)c(O)c1)C(=O)O | inconclusive [inhibitor, full curve] | 
19 | c1cnc(N2CCN(Cc3ccc4c(c3)OCO4)CC2)nc1 | inactive | 
20 | O=C(O)CC(Sc1n[nH]c(=S)s1)C(=O)O (configuration not stated) | inactive | 
21 | COc1cc(/C=C2/C(=O)NN(c3cccc(C)c3)C2=O)cc([N+](=O)[O-])c1O | inconclusive [inhibitor, single point] | 

Row | Structure (SMILES) | Potency | activity change, negative = inhibition
22 | CC1(C)CCC(=O)N2CC[C@H]3C[C@H](OC(=O)Nc4ccc(Br)cc4)C[C@@H]1[C@H]32 | inconclusive [inhibitor, single point] | 
23 | CC(C)(C)OC(=O)C[C@H]1C/C=C\C[C@H](CC(=O)N(CCO)Cc2ccccc2)C(=O)N[C@@H](c2ccccc2)COC1=O |  | inconclusive: -0.411% [inhibitor]
24 | COCCNc1nc2cc(-c3ccsc3)sc2c(=O)n1C | inconclusive [inhibitor, full curve] | 
25 | O=C(c1ccco1)N1CCN(C(=O)c2ccco2)CC1 | inactive | 
26 | COc1ccc([N+](=O)[O-])cc1NC(=O)CSCc1ccc(Br)cc1 | inconclusive [inhibitor, full curve, poor fit] | 
27 | C/C(CC(=O)Nc1cccc(C(F)(F)F)c1)=N\NC(=O)C(=O)NCC(C)C | inconclusive [inhibitor, full curve] | 
28 | Cc1ccc(C)c(CS(=O)(=O)c2cn(CC(=O)N3CCC(C)CC3)c3ccccc23)c1 | inconclusive [inhibitor, partial curve, poor fit] | 
29 | O=C(CNC(=S)N(CCCN1CCOCC1)Cc1cccs1)NCc1ccccc1 | inconclusive [inhibitor, partial curve, poor fit] | 
30 | CC(SCC(=O)Nc1ccc(F)cc1)c1nc2ccccc2c(=O)[nH]1 (configuration not stated) | inconclusive [inhibitor, partial curve, poor fit] | 
31 | Cc1ccc(S(=O)(=O)N2C[C@H]3C(=O)C[C@@H](c4ccccc4)N(S(=O)(=O)c4ccc(C)cc4)[C@H]3C[C@H]2c2ccccc2Cl)cc1 | inconclusive [inhibitor, partial curve] | 
32 | Cc1csc(CNc2ncnc3ccc(-c4ccc5c(c4)OCCO5)cc23)c1 | inconclusive [inhibitor, partial curve] | 
33 | CNS(=O)(=O)c1ccc(C)cc1 | inconclusive [inhibitor, partial curve, poor fit] | 
34 | COC(=O)c1cc(O)cc(OC)c1Oc1cc(C)cc(O)c1C(=O)O | inconclusive [inhibitor, full curve] | 
35 | COc1ccc(C(=O)N2CCc3cc(OC)c(OC)cc3C2c2ccc(OC)c(OC)c2)cc1 (configuration not stated) | inconclusive [inhibitor, partial curve, poor fit] | 
36 | CCOC(=O)C1CCCN(C(=O)c2ccc3[nH]c4c(c3c2)CC(C)CC4)C1 (configuration not stated) | inactive | 
37 | O=C1Nc2ccccc2C1C(C[N+](=O)[O-])c1ccccc1 (configuration not stated) | inconclusive [inhibitor, partial curve] | 
38 | O=[N+]([O-])c1ccc(Sc2cccc3cccnc23)c([N+](=O)[O-])c1 | inactive | 
39 | Cc1cccc2cc(CN(Cc3cccs3)S(=O)(=O)c3ccc4c(c3)OCCO4)c(=O)[nH]c12 | inconclusive [inhibitor, full curve, poor fit] | 
40 | CSc1nnc(NC(=O)c2nc(S(=O)(=O)Cc3ccc(C)cc3)ncc2Cl)s1 | inconclusive [inhibitor, partial curve] | 
41 | CCC(=O)OCCNc1cc(Sc2nc3ccccc3[nH]2)c2nonc2c1[N+](=O)[O-] | inconclusive [inhibitor, partial curve, poor fit] | 
42 | Cc1ncc([N+](=O)[O-])n1CCN1C(=O)c2ccccc2C1=O | inactive | 

Row | Structure (SMILES) | Potency | activity change, negative = inhibition
43 | CCCC1(C(=O)OCC)NC(c2ccc(N(C)C)cc2)C2C(=O)N(c3ccc(F)cc3)C(=O)C21 (configuration not stated) | inconclusive [inhibitor, single point] | 
44 | Cc1ccccc1NC(=O)OCc1cccnc1Oc1ccc(Cl)cc1 | inconclusive [inhibitor, full curve] | 
45 | CC(C)(C)S(=O)N1Cc2cc(C(=O)N3CCc4ccccc4C3)nc(-c3cccc(-c4cccnc4)c3)c2[C@@H]1CCO (some centres not stated) | inconclusive [inhibitor, partial curve] | 
46 | CCOc1ccc(/C=C2\SC(=S)NC2=O)cc1OC | inconclusive [inhibitor, full curve] | 
47 | Cc1ccc(/C=C/C(=O)Nc2ccc(N(C)C)cc2)o1 | inactive | 
48 | CC(C)CC(=O)Nc1ccccc1Oc1ccccc1 | inconclusive [inhibitor, single point] | 
49 | COc1ccccc1N1CCN(S(=O)(=O)c2ccc3c(c2)NC(=O)C(C)C(=O)N3)CC1 (configuration not stated) | inconclusive [inhibitor, single point] | 
50 | CCC1=NN2C(=N)/C(=C\c3ccc(SCc4ccco4)o3)C(=O)N=C2S1 | inconclusive [inhibitor, single point] | 
51 | COc1cc(/C=N\NC(=O)CNC(=O)C(c2ccccc2)c2ccccc2)ccc1O | inconclusive [inhibitor, full curve, poor fit] | 
52 | CC(=O)c1c(C)oc2ccc(NS(=O)(=O)c3ccccc3)cc12 | inconclusive [inhibitor, single point] | 
53 | COc1cc2c(C(=O)NCc3ccccn3)cn(CC(C)C)c(=O)c2cc1OC | inconclusive [inhibitor, full curve] | 
54 | Fc1ccccc1NC(=S)NCc1ccc(Cl)cc1 | inconclusive [inhibitor, single point] | 
55 | CCn1cc(S(=O)(=O)CC(=O)Nc2cc(C)ccc2C)c2ccccc21 | inactive | 
56 | CCOC(=O)/C(=C\c1ccc(OC(F)F)cc1)C1=Nn2c(nnc2-c2ccc(Cl)cc2)SC1 | inconclusive [inhibitor, partial curve] | 
57 | C/C(CC(=O)Nc1cccc2c1CCCC2)=N\NC(=O)Cc1ccccc1 | inconclusive [inhibitor, full curve, poor fit] | 
58 | CCOC(=O)CNC(=S)N(Cc1ccccc1F)C1CCCCC1 | inconclusive [inhibitor, partial curve, poor fit] | 
59 | Cc1oc2c(cc(NS(=O)(=O)c3ccc(F)cc3)c3ccccc32)c1C(=O)O | inconclusive [inhibitor, single point] | 
60 | COc1ccc(CC(=O)NCc2nnc(SCC(=O)Nc3nccs3)n2-c2ccccc2)cc1 | inconclusive [inhibitor, single point] | 
61 | O=C(C[n+]1ccc(/C=N/O)cc1)NCc1ccccc1 | inactive | 
62 | C=CCN1C(=O)NC(c2ccc(OC)cc2)(C(F)(F)F)S/C1=C(\C#N)c1nnc(N2CCOCC2)n1-c1ccccc1 (configuration not stated) | inconclusive [inhibitor, partial curve] | 
